# Reference: the supplement of paper PMC4604168 (melanoma cell lines)
# This is one part of the list. Repeats are few or missing, and single values can be far off.
# How the values were obtained:
# Test in all cases: cell count relative to DMSO control; melanoma cells; higher = more viable cells
# Details in all cases: library dose: low library concentration; 72 h
# COLO792 = system: COLO792
# COLO800 = system: COLO800
# COLO829 = system: COLO829
# G361 = system: G361
# IPC-298 = system: IPC-298
# IST-MEL1 = system: IST-MEL1
# LB2518-MEL = system: LB2518-MEL
# LOXIMVI = system: LOXIMVI
# MEL-HO = system: MEL-HO
# MZ2-MEL = system: MZ2-MEL
# 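Note: cell number obtained by counting DAPI-stained nuclei in high-throughput microscope images with image analysis software, screen run in 1,536-well plates.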
SMILES,cell count (COLO792) [%],cell count (COLO800) [%],cell count (COLO829) [%],cell count (G361) [%],cell count (IPC-298) [%],cell count (IST-MEL1) [%],cell count (LB2518-MEL) [%],cell count (LOXIMVI) [%],cell count (MEL-HO) [%],cell count (MZ2-MEL) [%]
"COc1ccc(-c2ccc3c(N4CCOCC4)nc(N4C[C@@H](C)O[C@@H](C)C4)nc3n2)cc1CO + COc1ccc(COc2ccc(Cc3cnc(N)nc3N)cc2OC)cc1 [GW2580] (first compound 0.02 µM, partner dose 1 µM)",99.3,146,93.7,101,94.4,110,103,62.9,95.3,92.5
"COc1ccc2c(c1)CCC1C2CCC2(C)C(NCCCCCCN3C(=O)C=CC3=O)CCC12 (stereo not given) + CCCCCCCCCCCC1=C(O)C(=O)C=C(O)C1=O [Embelin] (first compound 0.4 µM, partner dose 1.2 µM)",92.1,110,127,82.4,103,102,102,103,99.3,97.9
"Cc1cc([N+](=O)[O-])ccc1NS(=O)(=O)c1cc(Cl)ccc1Cl + CCCCCCCCCCCC1=C(O)C(=O)C=C(O)C1=O [Embelin] (first compound 1 µM, partner dose 1.2 µM)",97.8,98.5,57.9,101,95.8,86.4,99.1,102,84.7,89.4
"Cc1cc([N+](=O)[O-])ccc1NS(=O)(=O)c1cc(Cl)ccc1Cl + O=c1cc(-c2cccc3c2Sc2ccccc2S3)oc(N2CCOCC2)c1 [KU55933] (first compound 1 µM, partner dose 1 µM)",82.3,103,104,85.2,84.5,78.6,110,89.8,80.4,97.9
"COc1ccc(-c2ccc3c(N4CCOCC4)nc(N4C[C@@H](C)O[C@@H](C)C4)nc3n2)cc1CO + c1cc(-c2cnn3cc(-c4ccc(OCCN5CCCCC5)cc4)cnc23)ccn1 [Dorsomorphin] (first compound 0.02 µM, partner dose 0.4 µM)",99,108,105,91,82.8,102,97.4,162,103,93.7
"Oc1nc(-c2ccc(C(F)(F)F)cc2)nc2c1CSCC2 + c1cc(-c2cnn3cc(-c4ccc(OCCN5CCCCC5)cc4)cnc23)ccn1 [Dorsomorphin] (first compound 2 µM, partner dose 0.4 µM)",82.1,104,105,90.3,96.2,95.2,89.4,135,97.2,101
"COC(=O)c1sccc1S(=O)(=O)Nc1ccc(Nc2ccccc2)cc1OC + CCCCCCCCCCCC1=C(O)C(=O)C=C(O)C1=O [Embelin] (first compound 1 µM, partner dose 1.2 µM)",112,90.3,115,104,103,98,84.2,136,93.3,96.3
"c1cc(-c2cnn3cc(-c4ccc(OCCN5CCCCC5)cc4)cnc23)ccn1 [Dorsomorphin] + COc1cc(N2CCC(N3CCN(C)CC3)CC2)ccc1Nc1ncc(Cl)c(Nc2ccccc2S(=O)(=O)C(C)C)n1 [NVP-TAE684] (first compound 0.4 µM, partner dose 0.08 µM)",101,60.6,111,80.8,99.5,109,103,109,91.6,103
"O=C(O)C(=O)Nc1sc2c(c1C(=O)O)CCNC2 + Cn1cc(/C=C2\C(=O)Nc3cccnc32)c2ccccc21 [GW441756] (first compound 1.66667 µM, partner dose 0.4 µM)",108,113,97.9,84.4,96.8,97.7,75.2,125,87.6,89.8
"CCN(CC)CCCCNc1ncc2cc(-c3cc(OC)cc(OC)c3)c(NC(=O)NC(C)(C)C)nc2n1 + Cc1cc([N+](=O)[O-])ccc1NS(=O)(=O)c1cc(Cl)ccc1Cl [FH535] (first compound 0.1 µM, partner dose 1 µM)",96,142,92.4,91.4,93.5,90.7,76.2,93.8,86.5,87.5
"N#Cc1c(O)c2c(-c3ccc(-c4ccccc4O)cc3)csc2[nH]c1=O + COc1ccc(COc2ccc(Cc3cnc(N)nc3N)cc2OC)cc1 [GW2580] (first compound 2 µM, partner dose 1 µM)",110,101,84,94.2,99.3,97.9,108,110,69.9,97.8
"COc1ccc(COc2ccc(Cc3cnc(N)nc3N)cc2OC)cc1 + Cc1cc([N+](=O)[O-])ccc1NS(=O)(=O)c1cc(Cl)ccc1Cl [FH535] (first compound 1 µM, partner dose 1 µM)",87.7,124,89.6,96.2,93.7,93.5,106,103,97.5,94.8
"COc1ccc(-c2ccc3c(N4CCOCC4)nc(N4C[C@@H](C)O[C@@H](C)C4)nc3n2)cc1CO + CCCCCCCCCCCC1=C(O)C(=O)C=C(O)C1=O [Embelin] (first compound 0.02 µM, partner dose 1.2 µM)",81.9,95.2,107,86.1,88.7,102,104,96.8,89.5,92.7
"COc1ccc(-c2ccc3c(N4CCOCC4)nc(N4C[C@@H](C)O[C@@H](C)C4)nc3n2)cc1CO + Oc1nc(-c2ccc(C(F)(F)F)cc2)nc2c1CSCC2 [XAV939] (first compound 0.02 µM, partner dose 2 µM)",72.5,85.3,92.2,88.7,89.1,88.4,89.7,84.2,74.5,91.7
"COc1cc2ncnc(Nc3ccc(Oc4ccccc4)cc3)c2cc1OC + COc1cc(N2CCC(N3CCN(C)CC3)CC2)ccc1Nc1ncc(Cl)c(Nc2ccccc2S(=O)(=O)C(C)C)n1 [NVP-TAE684] (first compound 2 µM, partner dose 0.08 µM)",96.8,114,100,104,101,101,129,116,80.1,95.9
"COC(=O)c1sccc1S(=O)(=O)Nc1ccc(Nc2ccccc2)cc1OC + CCN(CC)CCCCNc1ncc2cc(-c3cc(OC)cc(OC)c3)c(NC(=O)NC(C)(C)C)nc2n1 [PD173074] (first compound 1 µM, partner dose 0.1 µM)",94.7,96.2,113,100,94.2,96,104,151,79.3,91.8
"COc1cc(N2CCC(N3CCN(C)CC3)CC2)ccc1Nc1ncc(Cl)c(Nc2ccccc2S(=O)(=O)C(C)C)n1 + O=c1cc(-c2cccc3c2Sc2ccccc2S3)oc(N2CCOCC2)c1 [KU55933] (first compound 0.08 µM, partner dose 1 µM)",113,83.8,85,86.9,96.4,91.6,123,121,87.7,96
"Oc1cc(-c2nc(-c3ccccc3)[nH]c2-c2ccncc2)ccc1Cl + Cc1cc([N+](=O)[O-])ccc1NS(=O)(=O)c1cc(Cl)ccc1Cl [FH535] (first compound 0.2 µM, partner dose 1 µM)",89.3,95.6,83,77,78.8,79.5,95.3,112,68.8,82.1
"O=C1NC(=O)/C(=C/c2ccc(-c3ccc(F)cc3O)o2)S1 + Cn1cc(/C=C2\C(=O)Nc3cccnc32)c2ccccc21 [GW441756] (first compound 1 µM, partner dose 0.4 µM)",95.6,140,91.9,111,94.5,112,95,81.5,93.4,95.1
"COc1ccc(-c2ccc3c(N4CCOCC4)nc(N4C[C@@H](C)O[C@@H](C)C4)nc3n2)cc1CO + CCN(CC)CCCCNc1ncc2cc(-c3cc(OC)cc(OC)c3)c(NC(=O)NC(C)(C)C)nc2n1 [PD173074] (first compound 0.02 µM, partner dose 0.1 µM)",83.7,82,66.3,92.3,101,99.8,91.1,144,79.4,95.8
"O=C1NC(=O)/C(=C/c2ccc(-c3ccc(F)cc3O)o2)S1 + c1cc(-c2cnn3cc(-c4ccc(OCCN5CCCCC5)cc4)cnc23)ccn1 [Dorsomorphin] (first compound 1 µM, partner dose 0.4 µM)",95.8,136,118,112,95.7,107,96.8,102,106,101
"COC(=O)c1sccc1S(=O)(=O)Nc1ccc(Nc2ccccc2)cc1OC + Cc1cc([N+](=O)[O-])ccc1NS(=O)(=O)c1cc(Cl)ccc1Cl [FH535] (first compound 1 µM, partner dose 1 µM)",95.9,89.5,111,96.3,94.9,84.7,122,97.9,85.5,95.8
"COc1ccc2c(c1)CCC1C2CCC2(C)C(NCCCCCCN3C(=O)C=CC3=O)CCC12 (stereo not given) + O=C(O)C(=O)Nc1sc2c(c1C(=O)O)CCNC2 [TCS401] (first compound 0.4 µM, partner dose 1.66667 µM)",96.8,95.9,98.7,98.5,96.4,94.8,96.8,114,89,99.7
"COc1ccc(COc2ccc(Cc3cnc(N)nc3N)cc2OC)cc1 + O=C1NC(=O)/C(=C/c2ccc(-c3ccc(F)cc3O)o2)S1 [AS252424] (first compound 1 µM, partner dose 1 µM)",103,103,87.9,87,98.3,95.6,83.8,99.3,98.4,108
